The record followed here is article PMC4336329 (PLoS ONE, 2015).

SMILES strings stand for the structures. The whole screen tested about 310,000 compounds, of which about 2,200 (0.71%) showed an effect of 50% or more. The effect is printed as a negative number. Some of the results follow.

The target in the assay is human ether-à-go-go-related gene (hERG) potassium channel (human, UniProt Q12809). Kind of assay: primary screen, population patch clamp on CHO cells stably expressing hERG.
Chain of human ether-à-go-go-related gene (hERG) potassium channel (Q12809 whole entry, looked up): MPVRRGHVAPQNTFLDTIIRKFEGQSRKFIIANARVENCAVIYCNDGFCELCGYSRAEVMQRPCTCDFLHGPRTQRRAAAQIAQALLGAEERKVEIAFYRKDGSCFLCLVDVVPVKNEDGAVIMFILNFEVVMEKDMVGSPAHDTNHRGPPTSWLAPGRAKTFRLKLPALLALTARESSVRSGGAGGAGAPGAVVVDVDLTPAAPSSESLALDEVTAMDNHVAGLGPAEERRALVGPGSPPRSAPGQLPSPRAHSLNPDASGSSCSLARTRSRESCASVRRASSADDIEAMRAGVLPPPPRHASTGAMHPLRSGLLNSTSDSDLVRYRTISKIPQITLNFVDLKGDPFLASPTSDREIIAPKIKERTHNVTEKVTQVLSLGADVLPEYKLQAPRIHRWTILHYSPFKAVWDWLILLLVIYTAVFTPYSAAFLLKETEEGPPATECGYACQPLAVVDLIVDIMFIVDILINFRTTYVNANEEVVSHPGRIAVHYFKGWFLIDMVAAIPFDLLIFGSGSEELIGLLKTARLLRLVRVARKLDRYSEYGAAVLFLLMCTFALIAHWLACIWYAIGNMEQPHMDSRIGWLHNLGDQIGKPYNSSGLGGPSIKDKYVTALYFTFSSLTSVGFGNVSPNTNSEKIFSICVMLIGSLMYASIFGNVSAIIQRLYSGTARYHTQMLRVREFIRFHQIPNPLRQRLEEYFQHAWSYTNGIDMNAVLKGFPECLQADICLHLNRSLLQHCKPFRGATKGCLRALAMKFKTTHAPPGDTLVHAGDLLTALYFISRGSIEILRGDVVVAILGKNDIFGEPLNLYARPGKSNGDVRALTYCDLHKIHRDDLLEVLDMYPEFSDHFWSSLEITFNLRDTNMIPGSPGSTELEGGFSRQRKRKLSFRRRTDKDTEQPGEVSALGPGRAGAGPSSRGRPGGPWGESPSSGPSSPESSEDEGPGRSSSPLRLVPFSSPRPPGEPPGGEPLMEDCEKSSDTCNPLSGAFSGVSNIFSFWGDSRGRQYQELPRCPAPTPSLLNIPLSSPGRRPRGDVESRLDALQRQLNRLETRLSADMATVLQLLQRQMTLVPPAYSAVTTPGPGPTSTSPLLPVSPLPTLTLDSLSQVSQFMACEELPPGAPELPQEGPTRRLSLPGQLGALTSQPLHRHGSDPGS
As for `COC(=O)/C=C1/SC(=NC(=O)c2ccc(Cl)cc2)NC1=O`, the “hERG current change (%, negative = inhibition) at 1uM” value turned out to be 16.6%. Under `O=C(NCCCn1ccnc1)c1ccc(OCC(F)(F)F)cc1` stands 2.75%; under `CCOC(=O)c1sc(NC(=O)CN2CCCC2)c(C(=O)OCC)c1C`, -7.2%; under `CC(=O)N1CCN(C(=O)c2ccccc2NS(=O)(=O)c2ccc(F)cc2)CC1`, 7.49%. As for `COC(=O)c1cccc(N/C=C(\[N+](=O)[O-])S(=O)(=O)c2ccccc2)c1`, the figure is 13.1%; as for `Cc1cc(C(=O)N/N=C/c2c(C)[nH]c3ccccc23)n[nH]1`, 13.7%; as for `CSc1ccc(-c2nnn(CC(=O)NCc3ccccc3)n2)cc1`, 13.4%. As for `COC(=O)C1CCN(S(=O)(=O)Cc2ccccc2)CC1`, the “hERG current change (%, negative = inhibition) at 1uM” value is 8.45%. As to `O=C(c1cc(-c2ccc(Br)cc2)n[nH]1)N1CCN(C(=O)c2ccccc2Br)CC1`, the “hERG current change (%, negative = inhibition) at 1uM” value turned out to be 2.43%. Turning to `COC(=O)c1c(C)cc(O)c(C=O)c1O`, the “hERG current change (%, negative = inhibition) at 1uM” value came out at 7.57%. Under `CC1CCN(C(=S)NCCc2ccccc2)CC1` stands -8.86%; under `COC(=O)C1=C(c2cccc(C#N)c2)C[C@@H]2CC[C@H]1N2C(=O)N1CCC(C)CC1`, -3.09%; under `C=CCn1c(N)c(C(=O)OCC)sc1=S`, 18%. As for `Nc1ccc(OCCc2ccccc2)cc1`, the figure is 11.5%; as for `O=C(CCN1C(=O)/C(=C/c2ccccc2F)SC1=S)NC1C=CS(=O)(=O)C1` (stereo not shown), 9.3%; as for `O=C(O)c1ccc(Cl)c(S(=O)(=O)Nc2ccc(S(=O)(=O)Nc3cccc(Cl)c3)cc2)c1`, 11.6%. As for `COC(=O)CCC/C=C1/SCC(NC(=O)c2ccccc2)/C1=N/O` (stereo not shown), the figure is 11.5%; as for `CCCNC(=O)c1cc(-c2ccc(OC)cc2)on1`, 3.94%. Turning to `O=C(Nc1cnn(Cc2ccccc2)c1)NC12CC3CC(CC(C3)C1)C2`, the “hERG current change (%, negative = inhibition) at 1uM” value was 15.3%. Under `Cc1cnc(NC(=O)CSc2nnc(N)s2)s1` stands 19.4%; under `COC(=O)c1c(NC(=S)Nc2ccc(F)cc2[N+](=O)[O-])sc2c1CCCCC2`, 14.7%; under `COCC(=O)Nc1ccc(OC)c(Cl)c1`, 1.93%. As for `Oc1ccccc1N1CCN(Cc2ncc(-c3ccccc3)o2)CC1`, the figure is 7%.

On to `CC(C)n1nccc1NS(=O)(=O)c1ccccc1`, for which the “hERG current change (%, negative = inhibition) at 1uM” value was 8.36%. As for `O=C1C=C(c2ccc(OC(F)(F)F)cc2)C[C@@H](c2ccc(F)cc2)C1`, the figure is 11.2%; as for `CC(C)c1nc2sc3c(=O)[nH]c(=S)[nH]c3c2c2c1CCCC2`, 13.2%; as for `Cl.OCCN1CCN(CC(O)COc2ccc(C34CC5CC(CC(C5)C3)C4)cc2)CC1` (stereo not shown), 8.74%. As for `O=c1c(Cc2ccc(F)cc2)c(O)ccn1Cc1cccc(Cl)c1`, the figure is 8.42%. Under `COc1cccc(NC(=O)c2cc3ccccc3o/c2=N\O)c1` stands 9.16%; under `O=C(CCc1nc(-c2ccc(Cl)cc2)no1)NC1CCCCC1`, 13.1%; under `CCN(CCCNC(=O)COc1cc(=O)n(C)c2ccccc12)c1ccccc1`, -12.6%. As for `CC(C)CNC(=S)N(CCCO)Cc1cc2cc3c(cc2[nH]c1=O)OCCO3`, the “hERG current change (%, negative = inhibition) at 1uM” value was 16.1%. Under `COc1ccc(Oc2coc3cc(OCC(=O)N4CCCCC4)ccc3c2=O)cc1` stands 1.94%. As for `COP(=O)(Cc1ccc(C#N)o1)OC`, the figure is 9.22%; as for `COc1cccc(NC(=O)NC2(C(=O)N3CCN(C)CC3)CCCCC2)c1`, 11.3%; as for `O=C(CN1CCOCC1)Nc1ccc(Cl)cc1`, 6.88%.

On to `CCOC(=O)CCCCC(=O)c1[nH]c(=O)[nH]c1CSc1nc2ccccc2[nH]1`, for which the “hERG current change (%, negative = inhibition) at 1uM” value amounted to 17.5%.

Take `CC(=O)Nc1sc2c(c1CN1CCN(c3ccc(F)cc3)CC1)CCCC2`: the “hERG current change (%, negative = inhibition) at 1uM” value was -2.89%.

With `Cc1ccc(NC(=O)CC2=NC(=O)C(CC(=O)Nc3ccccc3C)S2)cc1` (stereo not shown), the “hERG current change (%, negative = inhibition) at 1uM” value worked out at 14.9%. Under `COC(=O)CCN(C(=O)c1ccc(OC(C)=O)cc1)c1ccccn1` stands 11%; under `O=C(O)c1cc(Br)ccc1NS(=O)(=O)c1cccc2nsnc12`, 17.4%; under `Nc1cc(N)nc(SCc2ccc(Cl)cc2)n1`, 10.8%. Under `O=c1oc2ccccc2c(O)c1CN1CCCCC1` stands 11.7%. On to `O=[N+]([O-])c1ccc(C2CCCC/C2=N/OCc2ccc(F)cc2)c([N+](=O)[O-])c1` (stereo not shown), for which the “hERG current change (%, negative = inhibition) at 1uM” value turned out to be 0.739%. Take `CC(=O)N1N=C(c2cccc(NS(C)(=O)=O)c2)CC1c1ccc2c(c1)OCO2` (stereo not shown): the “hERG current change (%, negative = inhibition) at 1uM” value was -0.789%.

In the case of `Cc1ccccc1C(=O)N1CCC(C(=O)N(CC(C)C)c2c(N)n(Cc3ccccc3)c(=O)[nH]c2=O)CC1`, the “hERG current change (%, negative = inhibition) at 1uM” value came out at 20.2%. `CCOC(=O)c1ccc(NC(=S)N2CCN(c3ccccn3)CC2)cc1`: the “hERG current change (%, negative = inhibition) at 1uM” value is 12.4%. As for `Cc1ccc(CN2CCN(/N=C/c3ccc(C(=O)O)cc3)CC2)c(C)c1`, the figure is 7.71%; as for `CC(=O)c1cccc(CN2CCC(C(=O)Nc3cccc(-c4ccn[nH]4)c3)CC2)c1`, 7.16%.

`CC1CCN(C(=O)COC(=O)c2cc3ccccc3cc2O)CC1`: the “hERG current change (%, negative = inhibition) at 1uM” value was found to be 10.5%.

As to `NS(=O)(=O)c1ccc(NC(=O)COC(=O)CCC2CCCC2)cc1`, the “hERG current change (%, negative = inhibition) at 1uM” value was 14%. As for `CSc1nc2ccc(NC(=O)c3nn(C(C)C)c(=O)c4ccccc34)cc2s1`, the figure is 8.78%; as for `Cc1n(-c2ccccc2)c2ccc(Cl)cc2[n+]1CCO.[I-]`, 14.4%. As for `C=CCOc1cccc(/C=N/NC(=O)C(OC)c2ccccc2)c1` (stereo not shown), the figure is 9.35%; as for `CCCCNC(=O)O[C@@H]1C[C@@H]2CCN3C(=O)CCC[C@H]([C@H]1CC)[C@H]23`, -4.75%. As for `O=C(Nc1ccncc1)c1cc(S(=O)(=O)N2CCCCC2)ccc1Cl`, the figure is -6.73%. In the case of `O=C(CSc1ncc(-c2ccccc2)[nH]1)Nc1ccccc1F`, the “hERG current change (%, negative = inhibition) at 1uM” value amounted to 10.3%. Regarding `CC(C)(C)NC(=O)C(c1ccncc1)N(C(=O)Cn1nnc(-c2ccc(F)cc2)n1)c1cccc(F)c1` (stereo not shown), the “hERG current change (%, negative = inhibition) at 1uM” value amounted to 10.1%. Turning to `Cc1cc(C)n(/N=C/c2c[nH]c3ccccc23)c(=O)c1C#N`, the “hERG current change (%, negative = inhibition) at 1uM” value is 14.8%. Under `O=C(O)COc1ccc(-c2nc(-c3ccccc3)c(-c3ccccc3)[nH]2)cc1` stands 13.7%.

Turning to `O=C(CSC(=S)N1CCCCC1)Nc1ncc2c(n1)CCCC2=O`, the “hERG current change (%, negative = inhibition) at 1uM” value was 13.7%. Under `CCOC(=O)c1cc(-c2ccccc2)nn1CC1CC(c2cccnc2)=NO1` (stereo not shown) stands 3.98%; under `CNCC(O)c1cc(OCc2ccccc2)c(OCc2ccccc2)cc1F` (stereo not shown), 13.1%. Under `Cn1c(SCc2cc(=O)[nH]c3ccccc23)nnc1-c1ccco1` stands 11.4%; under `COc1cccc(CNS(=O)(=O)c2ccc(N3CCCC3=O)cc2)c1`, 1.94%; under `c1ccc(C2OCCN3CCCCC23)cc1` (stereo not shown), 2.18%.

In the case of `Fc1ccc(-c2csc(=S)[nH]2)cc1`, the “hERG current change (%, negative = inhibition) at 1uM” value is on record as 8.7%.

On to `O=C(NC1CCCC1)c1cc(-c2ccc(Cl)c(Cl)c2)on1`, for which the “hERG current change (%, negative = inhibition) at 1uM” value is reported as 12.5%.

Take `CCN(CC)c1ccc(/C=N/NC(=O)OC)c(O)c1`: the “hERG current change (%, negative = inhibition) at 1uM” value is 5.91%. As for `COc1ccc([N+](=O)[O-])cc1N(CC(=O)N1CCOCC1)S(C)(=O)=O`, the figure is 16.6%; as for `Cc1c(Cc2ccccc2)sc(/N=C/c2ccc3ccccc3c2)c1C(N)=O`, 11.3%; as for `CS(=O)(=O)Nc1ccccc1C(=O)NCCSc1ccccc1`, 12.2%. For `CCOC(=O)N1CCC(N(CCCOC)C(=O)Nc2ccc(CC)cc2)CC1`, the “hERG current change (%, negative = inhibition) at 1uM” value is -4.18%.

Regarding `CCCCn1nc2cc(C(=O)NCC3CC3)ccc2c1OCC`, the “hERG current change (%, negative = inhibition) at 1uM” value was -11%. For `CCCOc1cccc(C(=O)NCCCNC(=O)c2ccccn2)c1`, the “hERG current change (%, negative = inhibition) at 1uM” value was determined as 16.2%.

Consider `O=C(Nc1cc2c(cc1Br)OCCO2)c1ccco1`, for which the “hERG current change (%, negative = inhibition) at 1uM” value is 25.6%. As for `COc1c(Cl)cc(C(=O)Nc2ccccc2-c2ccccc2)cc1Cl`, the figure is 10.6%. Under `CC(=O)c1cnc2cc(-c3ccc(C)cc3)nn2c1C` stands 9.07%; under `CCn1c(SCC(=O)Nc2ccc(F)cc2F)nc2c(c1=O)SCC2`, 5.88%; under `CC(Oc1ccc(Cl)cc1Cl)C(=O)NC1=NN(c2ccccc2)C(=O)C1` (stereo not shown), -12.9%.

On to `COCC1CCCCN1C(=O)c1ccc(OC2CCN(Cc3ccccn3)CC2)cc1` (stereo not shown), for which the “hERG current change (%, negative = inhibition) at 1uM” value came to 4.31%. As for `Cc1cc(C)c2nc(N3CCN(C(=O)c4cccs4)CC3)sc2c1`, the figure is -1.69%. Under `CCC[C@@H](CNC)NC[C@H](Cc1ccccc1)NCCCCc1ccccc1` stands 8.73%. As to `Cc1cccn2c(=O)c(/C=C(\C#N)C(=O)NCc3ccccc3)c(N3CCC(C(N)=O)CC3)nc12`, the “hERG current change (%, negative = inhibition) at 1uM” value was found to be 7.42%. Under `CCC(=O)N1CCCc2cc(S(=O)(=O)N3CCN(c4ccccc4F)CC3)ccc21` stands 5.39%. As for `COC(F)(C(=O)Nc1ccc2c(c1)C(=O)NC2=O)C(F)(F)F` (stereo not shown), the figure is -1.02%; as for `Cc1cc(C(=O)Nc2c(C)nn(Cc3c(Cl)cccc3Cl)c2C)no1`, 6.34%; as for `CCc1cccc(CC)c1NC(=O)COC(=O)Cc1ccsc1`, 16.4%. Under `Cc1cccc(NC(=O)CCSc2ccccc2)c1C` stands 6.22%. Regarding `O=C(Nc1ccc(-c2cn3ccsc3n2)cc1)c1ccc(F)c(S(=O)(=O)N2CCOCC2)c1`, the “hERG current change (%, negative = inhibition) at 1uM” value was determined as 0.396%. Under `CCOC(=O)C(CC)n1cnc2c(cnn2-c2ccc(Cl)cc2)c1=O` (stereo not shown) stands 5.31%.
